According to ChEMBL document CHEMBL2321667, “Imidazopyridine-Based Fatty Acid Synthase Inhibitors That Show Anti-HCV Activity and in Vivo Target Modulation” (ACS Med Chem Lett, 2013):

Key:
[1] = molecular target: Fatty acid synthase (Homo sapiens, UniProt P49327)
[2] = in vitro; conditions: plasma
[3] = molecular target: T1, Fatty acid synthase (Rattus norvegicus, UniProt P12785)
[4] = in vivo; conditions: rat, po, 50 mg/kg
[5] = in vivo; conditions: rat, iv, 1 mg/kg
[6] = in vivo; conditions: rat, iv, 1 mg/kg; remark: listed apart in the source
[7] = species on record: Rattus norvegicus; assay: animal or person; conditions: Sprague-Dawley, po, read-out: INH
[8] = in vivo; conditions: Sprague-Dawley, rat, po, 15 mg/kg
[9] = species on record: Rattus norvegicus; assay: animal or person; conditions: Sprague-Dawley, po, read-out: INH; remark: listed apart in the source
[10] = in vivo; conditions: rat, po, 50 mg/kg; remark: listed apart in the source
[11] = in vitro; conditions: human, huh-7
[12] = in vivo; conditions: rat, po, 50 mg/kg; remark: listed apart in the source
[13] = in vivo; conditions: rat, iv, 1 mg/kg; remark: listed apart in the source
[14] = molecular target: T1, Fatty acid synthase; remark: listed apart in the source
[15] = in vivo; conditions: rat, iv, 1 mg/kg; remark: listed apart in the source
[16] = in vivo; conditions: Sprague-Dawley, rat, po, 50 mg/kg
[17] = system: Hepatitis C virus; assay: microbe, parasite or virus in culture; conditions: genotype 1b, Huh-7, 72 h

T1 sequence (P12785 whole entry): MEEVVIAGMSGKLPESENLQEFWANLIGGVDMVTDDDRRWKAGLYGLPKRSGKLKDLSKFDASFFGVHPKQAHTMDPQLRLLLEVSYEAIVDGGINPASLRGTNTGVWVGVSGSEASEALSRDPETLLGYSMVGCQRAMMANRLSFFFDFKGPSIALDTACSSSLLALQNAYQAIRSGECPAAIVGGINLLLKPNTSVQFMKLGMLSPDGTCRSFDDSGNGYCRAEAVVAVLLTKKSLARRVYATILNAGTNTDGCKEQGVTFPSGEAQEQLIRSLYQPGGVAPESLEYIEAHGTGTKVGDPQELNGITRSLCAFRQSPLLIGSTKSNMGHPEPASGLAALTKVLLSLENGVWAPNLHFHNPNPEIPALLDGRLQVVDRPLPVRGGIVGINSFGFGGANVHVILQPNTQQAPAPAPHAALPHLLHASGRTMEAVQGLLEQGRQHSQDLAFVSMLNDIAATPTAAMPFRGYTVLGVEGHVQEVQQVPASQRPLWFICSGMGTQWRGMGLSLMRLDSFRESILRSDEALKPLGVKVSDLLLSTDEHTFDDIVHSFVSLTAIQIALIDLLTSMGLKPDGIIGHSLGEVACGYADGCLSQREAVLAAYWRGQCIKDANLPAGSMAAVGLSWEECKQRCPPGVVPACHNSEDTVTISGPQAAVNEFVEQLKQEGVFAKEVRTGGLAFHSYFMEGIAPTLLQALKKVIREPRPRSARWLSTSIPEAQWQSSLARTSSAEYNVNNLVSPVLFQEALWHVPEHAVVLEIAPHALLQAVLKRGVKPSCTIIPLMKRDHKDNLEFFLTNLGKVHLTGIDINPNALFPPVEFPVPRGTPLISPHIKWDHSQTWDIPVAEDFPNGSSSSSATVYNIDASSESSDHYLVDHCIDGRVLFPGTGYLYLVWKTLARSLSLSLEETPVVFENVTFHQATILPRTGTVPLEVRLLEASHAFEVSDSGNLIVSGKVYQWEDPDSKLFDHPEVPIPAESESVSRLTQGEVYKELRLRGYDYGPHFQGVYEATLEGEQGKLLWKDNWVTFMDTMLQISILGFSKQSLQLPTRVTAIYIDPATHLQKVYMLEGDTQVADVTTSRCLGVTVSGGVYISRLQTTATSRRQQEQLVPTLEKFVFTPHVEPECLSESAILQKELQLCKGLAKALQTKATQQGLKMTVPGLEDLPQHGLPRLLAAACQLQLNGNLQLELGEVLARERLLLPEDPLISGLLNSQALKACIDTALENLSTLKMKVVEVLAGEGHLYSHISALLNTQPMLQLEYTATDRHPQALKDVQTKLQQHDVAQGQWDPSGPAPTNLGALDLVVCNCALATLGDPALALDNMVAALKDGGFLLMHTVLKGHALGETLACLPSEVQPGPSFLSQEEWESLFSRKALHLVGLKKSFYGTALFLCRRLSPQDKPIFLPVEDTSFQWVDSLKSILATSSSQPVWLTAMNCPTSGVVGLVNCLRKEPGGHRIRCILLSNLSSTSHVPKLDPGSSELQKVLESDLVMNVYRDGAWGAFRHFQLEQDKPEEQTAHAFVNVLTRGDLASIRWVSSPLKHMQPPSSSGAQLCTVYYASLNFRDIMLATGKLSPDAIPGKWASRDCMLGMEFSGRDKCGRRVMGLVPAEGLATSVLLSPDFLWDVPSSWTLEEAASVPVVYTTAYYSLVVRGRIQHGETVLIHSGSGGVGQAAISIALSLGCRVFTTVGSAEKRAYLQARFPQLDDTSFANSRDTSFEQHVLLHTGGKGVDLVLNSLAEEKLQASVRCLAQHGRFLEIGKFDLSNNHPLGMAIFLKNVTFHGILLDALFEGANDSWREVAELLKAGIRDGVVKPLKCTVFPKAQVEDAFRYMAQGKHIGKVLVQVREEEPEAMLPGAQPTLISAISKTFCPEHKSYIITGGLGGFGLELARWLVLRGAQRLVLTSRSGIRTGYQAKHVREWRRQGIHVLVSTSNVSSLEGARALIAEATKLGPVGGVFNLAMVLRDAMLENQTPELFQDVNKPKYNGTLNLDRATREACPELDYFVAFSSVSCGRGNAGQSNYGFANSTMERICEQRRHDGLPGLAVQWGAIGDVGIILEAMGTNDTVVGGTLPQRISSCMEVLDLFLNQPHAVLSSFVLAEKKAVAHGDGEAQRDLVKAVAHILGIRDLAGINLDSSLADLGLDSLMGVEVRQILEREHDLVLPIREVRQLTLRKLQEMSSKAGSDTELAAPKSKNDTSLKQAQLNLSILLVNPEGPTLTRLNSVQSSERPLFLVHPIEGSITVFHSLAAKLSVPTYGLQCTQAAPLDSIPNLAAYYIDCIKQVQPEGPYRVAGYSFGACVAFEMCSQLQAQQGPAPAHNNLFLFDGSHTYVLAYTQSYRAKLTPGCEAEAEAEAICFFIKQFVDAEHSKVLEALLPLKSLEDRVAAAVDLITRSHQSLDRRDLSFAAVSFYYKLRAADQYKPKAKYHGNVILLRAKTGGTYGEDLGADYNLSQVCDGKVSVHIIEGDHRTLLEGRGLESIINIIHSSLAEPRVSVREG
Fatty acid synthase (Homo sapiens, UniProt P49327), sequence (P49327 whole entry): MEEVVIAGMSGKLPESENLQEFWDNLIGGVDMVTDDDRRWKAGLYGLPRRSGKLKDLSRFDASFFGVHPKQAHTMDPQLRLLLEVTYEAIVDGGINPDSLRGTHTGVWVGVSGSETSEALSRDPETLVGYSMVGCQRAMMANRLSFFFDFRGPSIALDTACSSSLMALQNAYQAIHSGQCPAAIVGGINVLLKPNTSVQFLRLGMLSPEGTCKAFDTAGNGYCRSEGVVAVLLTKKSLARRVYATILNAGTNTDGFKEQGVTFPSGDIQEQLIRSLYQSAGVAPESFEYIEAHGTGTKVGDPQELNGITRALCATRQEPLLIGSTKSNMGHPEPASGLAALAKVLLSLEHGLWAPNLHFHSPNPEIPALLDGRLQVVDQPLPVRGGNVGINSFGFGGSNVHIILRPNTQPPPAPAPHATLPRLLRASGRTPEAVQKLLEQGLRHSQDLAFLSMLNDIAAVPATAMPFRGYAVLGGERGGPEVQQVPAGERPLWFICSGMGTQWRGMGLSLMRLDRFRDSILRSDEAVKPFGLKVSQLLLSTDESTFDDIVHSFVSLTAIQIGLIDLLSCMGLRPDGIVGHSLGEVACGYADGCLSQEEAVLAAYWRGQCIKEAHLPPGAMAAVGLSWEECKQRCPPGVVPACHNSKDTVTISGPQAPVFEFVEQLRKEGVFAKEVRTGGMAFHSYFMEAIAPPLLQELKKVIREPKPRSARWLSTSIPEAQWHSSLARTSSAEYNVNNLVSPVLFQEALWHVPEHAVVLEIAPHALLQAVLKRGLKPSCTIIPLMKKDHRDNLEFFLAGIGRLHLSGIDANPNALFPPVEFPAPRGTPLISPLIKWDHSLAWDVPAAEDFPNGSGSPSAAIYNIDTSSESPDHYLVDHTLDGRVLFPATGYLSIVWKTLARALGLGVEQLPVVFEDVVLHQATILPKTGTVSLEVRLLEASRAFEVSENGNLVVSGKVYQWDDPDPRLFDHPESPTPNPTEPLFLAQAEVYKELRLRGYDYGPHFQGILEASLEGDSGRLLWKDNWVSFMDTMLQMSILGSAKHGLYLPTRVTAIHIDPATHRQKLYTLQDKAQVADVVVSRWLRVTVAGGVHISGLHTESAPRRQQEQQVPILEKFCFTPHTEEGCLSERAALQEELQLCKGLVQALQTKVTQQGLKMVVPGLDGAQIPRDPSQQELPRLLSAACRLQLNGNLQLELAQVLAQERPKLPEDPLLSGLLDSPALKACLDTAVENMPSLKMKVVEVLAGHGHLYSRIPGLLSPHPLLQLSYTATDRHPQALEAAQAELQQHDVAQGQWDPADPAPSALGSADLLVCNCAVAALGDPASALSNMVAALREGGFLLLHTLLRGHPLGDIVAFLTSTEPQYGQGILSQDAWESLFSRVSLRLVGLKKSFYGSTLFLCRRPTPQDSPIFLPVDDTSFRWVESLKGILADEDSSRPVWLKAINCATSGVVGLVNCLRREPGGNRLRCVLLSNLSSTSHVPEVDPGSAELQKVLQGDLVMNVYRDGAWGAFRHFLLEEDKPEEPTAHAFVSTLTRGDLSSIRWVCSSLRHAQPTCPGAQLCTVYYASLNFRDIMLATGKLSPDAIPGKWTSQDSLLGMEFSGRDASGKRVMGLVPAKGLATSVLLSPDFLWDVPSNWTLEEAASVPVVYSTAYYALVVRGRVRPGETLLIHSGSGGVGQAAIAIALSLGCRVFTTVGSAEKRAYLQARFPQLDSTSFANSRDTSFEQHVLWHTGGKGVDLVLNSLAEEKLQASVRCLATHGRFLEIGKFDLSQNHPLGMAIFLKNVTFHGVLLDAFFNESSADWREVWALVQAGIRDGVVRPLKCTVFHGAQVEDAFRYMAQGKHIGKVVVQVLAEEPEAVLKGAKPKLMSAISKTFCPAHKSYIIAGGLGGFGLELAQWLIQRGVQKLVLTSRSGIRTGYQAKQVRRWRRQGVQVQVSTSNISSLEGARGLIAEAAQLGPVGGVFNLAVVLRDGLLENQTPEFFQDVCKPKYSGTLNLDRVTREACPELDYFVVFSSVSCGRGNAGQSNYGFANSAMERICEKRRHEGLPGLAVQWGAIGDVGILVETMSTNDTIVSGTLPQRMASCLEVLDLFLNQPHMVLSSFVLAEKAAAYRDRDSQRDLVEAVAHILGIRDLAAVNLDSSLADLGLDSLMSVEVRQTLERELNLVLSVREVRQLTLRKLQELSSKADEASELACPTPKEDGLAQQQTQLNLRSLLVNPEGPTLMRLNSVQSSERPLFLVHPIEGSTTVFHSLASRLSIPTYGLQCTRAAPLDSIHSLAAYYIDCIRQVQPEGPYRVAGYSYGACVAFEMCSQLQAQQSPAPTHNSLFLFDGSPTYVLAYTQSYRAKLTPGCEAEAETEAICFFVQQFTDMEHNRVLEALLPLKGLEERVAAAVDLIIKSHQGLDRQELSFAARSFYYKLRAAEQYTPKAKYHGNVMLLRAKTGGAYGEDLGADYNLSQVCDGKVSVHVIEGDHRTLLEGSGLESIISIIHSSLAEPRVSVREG

SMILES: Cc1ccc(C(=O)N2CCC(c3ccc(C#N)cc3)CC2)cc1NC(=O)c1ccc(N2CCCC2)nc1
- IC50 [1]: 50 nM

SMILES: Cc1ccc(C(=O)N2CCC(c3ccc(C#N)cc3)CC2)cc1C(=O)Nc1ccc(N2CCCC2)nc1
- half-life [2]: > 10 h
- IC50 [3]: 28500 nM

SMILES: Cc1cc(C)c(-c2nc3cc(N4CCCC4)ncc3[nH]2)cc1C(=O)N1CCC(c2ccc(C#N)cc2)CC1
- AUC [4]: 18200 ng·h/mL
- AUC [5]: 460 ng·h/mL
- Vd [6]: 2 L/kg
- IC50 [3]: 160 nM
- inhibition in vivo at 50 mg/kg [7]: 40%
- concentration at 8 h [8]: 130 nM
- inhibition in vivo at 15 mg/kg [9]: 2%
- half-life [10]: 3.2 h
- CC50 at 72 h [11]: > 3000 nM
- bioavailability [12]: 88%
- clearance [13]: 36 mL/min/kg
- IC50 [14]: 62 nM
- half-life [15]: 0.7 h
- concentration at 8 h [16]: 3400 nM

SMILES: Cc1cc(C)c(-c2nc3cc(N4CCN(C)CC4)ncc3[nH]2)cc1C(=O)N1CCC(c2ccc(C#N)cc2)CC1
- EC50 [17]: 520 nM
- IC50 [3]: 3840 nM
- CC50 at 72 h [11]: > 20000 nM

SMILES: Cc1cc(C(=O)N2CCC(c3ccc(C#N)cc3)CC2)cc(-c2nc3cc(N4CCCC4)ncc3[nH]2)c1
- IC50 [3]: > 50000 nM
- IC50 [1]: > 50000 nM
